Here are results for 27 compounds from the supplement of paper PMC5919970.

For the assay, the system named is TYKNU. As to the kind of experiment: fractional viability relative to vehicle; TYKNU is a high-grade serous ovarian cancer line; higher = less growth inhibition. The note with it: 72 h. An outline of the steps: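 TYKNU control cells or lentiCRISPRv2 knockout derivatives were plated at 500 cells per well in duplicate into drug-stamped 384-well plates holding a ~2100-compound library at 2 or 10 μM. Culture was in RPMI 1640 with 10% FBS at 37 °C in 5% CO2, with 72 h of drug treatment. Viability was measured by Cell Titer Glo luminescence, and the averaged duplicate treatment wells were normalised to duplicate control wells at the same plate position.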

[1] abbreviates: 2uM, genotype: DNM1L knockout (sgDNM1L #1).
Setting [2] is: 2uM, genotype: sgCTRLA1 (non-targeting control).
The mark [3] stands for this setting: 10uM, genotype: DNM1L knockout (sgDNM1L #1).
Setting [4] is: 10uM, genotype: sgCTRLA1 (non-targeting control).

Structures can show the parent of a compound that is named as a salt. The full ranking holds about 2,000 compounds; the median of “fractional viability relative to vehicle” is about 0.91, and the lowest 2% start at about 0.045. Some of the results follow.

Turning to `COc1ccc([C@]2(C#N)CC[C@@H](C(=O)O)CC2)cc1OC1CCCC1` [Cilomilast], the fractional viability came to 0.977 under setting [1], 1.1 under setting [2], 0.843 under setting [3] and 1.15 under setting [4].
For `COCC[n+]1c2c(n(Cc3cnccn3)c1C)C(=O)c1ccccc1C2=O` [YM155 (Sepantronium Bromide)] the same measures were 0.0411, 0.0393, 0.0214 and 0.0241.
For `O=C(NCCO)c1cccc(-c2cc(Nc3ccc(OC(F)(F)F)cc3)ncn2)c1` the same measures were 0.807, 1, 0.555 and 0.573.
For the compound `Nc1ccn([C@H]2CC[C@@H](CO)O2)c(=O)n1` [Zalcitabine], the fractional viability amounted to 0.987 under setting [1], 1.07 under setting [2], 0.928 under setting [3] and 1.07 under setting [4].
With `CCc1cc(Nc2nccc(-c3c(-c4ccc(OC)c(C(=O)Nc5c(F)cccc5F)c4)nc4ccccn34)n2)c(OC)cc1N1CCC(N2CCN(S(C)(=O)=O)CC2)CC1`, the fractional viability reads like this: under setting [1], 1.12; under setting [2], 1.04; under setting [3], 0.72; under setting [4], 0.915.
For `COc1cccc(-c2cc(=O)c3ccccc3o2)c1N` the same measures were 1.19, 1.1, 1.17 and 0.967.
As for `C=CCNC(N)=S` [Allylthiourea], the fractional viability is, setting by setting: under setting [1], 1.12; under setting [2], 1.1; under setting [3], 0.797; under setting [4], 1.07.
Regarding `CNC(=O)c1cccc(-c2ccc3c(N4CCOC[C@@H]4C)nc(N4CCOC[C@@H]4C)nc3n2)c1`, the fractional viability under setting [1] was found to be 0.277, the fractional viability under setting [2] came to 0.218, the fractional viability under setting [3] turned out to be 0.201 and the fractional viability under setting [4] was 0.237.
For `CN(C)CCOC(C)(c1ccccc1)c1ccccn1` (stereo not drawn) [Doxylamine Succinate], the fractional viability reads like this: under setting [1], 0.893; under setting [2], 1.15; under setting [3], 0.871; under setting [4], 1.09.
For `COc1cc2nccc(Oc3ccc(NC(=O)Nc4cc(C)on4)c(Cl)c3)c2cc1OC` [Tivozanib (AV-951)], the fractional viability runs as follows: under setting [1], 1.07; under setting [2], 0.945; under setting [3], 0.592; under setting [4], 0.594.
The corresponding values for `CC(C)(C#N)c1cc(Cn2cncn2)cc(C(C)(C)C#N)c1` [Anastrozole] are 0.925, 1.08, 0.909 and 1.02.
For `COc1cccc(-n2c(=O)[nH]c3cc(Cl)n(-c4ccc(-c5cccc(OC)c5O)cc4)c3c2=O)c1` the same measures were 0.844, 1.02, 0.857 and 0.918.
Compound `C[C@@H](O)[C@H]1C(=O)N2C(C(=O)O)=C(S[C@@H]3CN[C@H](CNS(N)(=O)=O)C3)[C@H](C)[C@H]12` [Doripenem Hydrate] came in with a fractional viability under setting [1] of 1.12, a fractional viability under setting [2] of 1.17, a fractional viability under setting [3] of 0.93 and a fractional viability under setting [4] of 1.
For `OC(CNCC(O)C1CCc2cc(F)ccc2O1)C1CCc2cc(F)ccc2O1` (stereo not drawn) [Nebivolol] the same measures were 0.798, 0.981, 0.276 and 0.606.
The corresponding values for `CN(CC(=O)N(Cc1ccc(C2CCCCC2)cc1)c1ccc(C(=O)O)cc1)S(=O)(=O)c1c(F)c(F)c(F)c(F)c1F` are 0.435, 0.661, 0.042 and 0.0176.
The corresponding values for `CC[C@H](C)[C@H](N)C1=N[C@H](C(=O)N[C@@H](CC(C)C)C(=O)N[C@H](CCC(=O)O)C(=O)N[C@H](C(=O)N[C@H]2CCCCNC(=O)[C@H](CC(N)=O)NC(=O)[C@@H](CC(=O)O)NC(=O)[C@H](Cc3cnc[nH]3)NC(=O)[C@@H](Cc3ccccc3)NC(=O)[C@H]([C@@H](C)CC)NC(=O)[C@@H](CCCN)NC2=O)[C@@H](C)CC)CS1` [Bacitracin] are 0.773, 1.01, 0.665 and 0.934.
Turning to `O=C(CCc1ccc(O)cc1)c1c(O)cc(O)cc1O` [Phloretin], the fractional viability under setting [1] turned out to be 1, the fractional viability under setting [2] came to 1.08, the fractional viability under setting [3] came out at 0.907 and the fractional viability under setting [4] stood at 1.19.
Regarding `CC(S)C(=O)NCC(=O)O` (stereo not drawn) [Tiopronin], the fractional viability reads like this: under setting [1], 1.11; under setting [2], 1.15; under setting [3], 0.887; under setting [4], 1.03.
On to `CNCc1ccc(-c2cc(-c3nc(-c4ccc(S(=O)(=O)C(C)C)cc4)cnc3N)on2)cc1`, for which the fractional viability by setting is: under setting [1], 0.919; under setting [2], 1.19; under setting [3], 0.902; under setting [4], 1.1.
Regarding `CN1CCN(CCCN2c3ccccc3Sc3ccc(C(F)(F)F)cc32)CC1` [Trifluoperazine 2HCl], the fractional viability was found to be 0.952 under setting [1], 1.15 under setting [2], 0.455 under setting [3] and 0.707 under setting [4].
On to `CNC[C@H](O)c1ccc(O)c(O)c1` [Epinephrine Bitartrate], for which the fractional viability runs as follows: under setting [1], 0.865; under setting [2], 1.08; under setting [3], 0.696; under setting [4], 0.908.
Turning to `CNC[C@H](O)c1ccc(O)c(O)c1` [Epinephrine HCl], the fractional viability is, setting by setting: under setting [1], 0.952; under setting [2], 1.03; under setting [3], 0.779; under setting [4], 0.905.
As for `O=C(NCc1ccccc1)c1csc(Nc2ccncn2)n1` [Thiazovivin], the fractional viability is, setting by setting: under setting [1], 1; under setting [2], 1.16; under setting [3], 0.791; under setting [4], 1.06.
For `CNC(=O)c1cc(Oc2ccc(NC(=O)Nc3ccc(Cl)c(C(F)(F)F)c3)c(F)c2)ccn1` [Regorafenib (BAY 73-4506)], the fractional viability was 0.71 under setting [1], 0.717 under setting [2], 0.472 under setting [3] and 0.308 under setting [4].
In turn, `CC(C)(C)NCC(O)COc1cccc2c1CCC(=O)N2` (stereo not drawn) [Carteolol HCl] displayed a fractional viability under setting [1] of 0.876, a fractional viability under setting [2] of 1.16, a fractional viability under setting [3] of 0.838 and a fractional viability under setting [4] of 1.14.
The corresponding values for `CN(C)CC(=O)Nc1ccc2[nH]c(=O)c3ccccc3c2c1` are 0.84, 1.06, 0.74 and 1.03.
Compound `O=C(O)c1cc(/N=N/c2ccc(O)c(C(=O)O)c2)ccc1O` [Olsalazine Sodium] had a fractional viability under setting [1] of 0.872, a fractional viability under setting [2] of 1.16, a fractional viability under setting [3] of 0.821 and a fractional viability under setting [4] of 1.16.
